Measured values published in the supplement of paper PMC9446081.
Hit rate of the full screen: of about 39,000 compounds, about 220 (0.56%) showed activity. The list shows a part of the results.

The molecules below were run on Escherichia coli K-12 BW25113 (assay: relative growth (OD600 normalised to plate interquartile mean) (fraction); higher = less growth inhibition, active = 0.2 or less). Conditions: 50 µM; LB; incubation time: overnight (16-24 h).
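Further: static incubation at 37 °C against the wild-type strain, values averaged over two biological replicates.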

Structure (SMILES) | relative growth
CO[C@@H]1CN(C)C(=O)c2cc(NS(=O)(=O)CC(F)(F)F)ccc2OC[C@H](C)N(C(=O)c2ccc3c(c2)OCO3)C[C@H]1C | inactive: 0.963
C[C@@H]1CN([C@@H](C)CO)C(=O)c2cc(C#CCN(C)C)cnc2O[C@@H]1CN(C)C(=O)Nc1ccccc1F | inactive: 1
C[C@@H]1CN([C@H](C)CO)C(=O)Cc2cc(NC(=O)CCN3CCOCC3)ccc2O[C@H]1CN(C)Cc1ccc(C(=O)Nc2ccccc2N)cc1 | inactive: 1.02
Cc1noc(C)c1NC(=O)N[C@@H]1CC[C@H](CC(=O)NCCCN(C)C)O[C@@H]1CO | inactive: 0.996
COc1ccc(CCNC(=O)[C@@]2(Cc3ccccc3I)c3ccccc3C(=O)N(C3CCCCC3)[C@H]2c2ccc(CO)cc2)cc1 | inactive: 1
COc1cc2c(cc1O)[C@H](c1ccc(CN3CCCC3)cc1)N(Cc1cc3c(cc1Br)OCO3)CC2 | inactive: 1.01
C[C@@H]1CN([C@H](C)CO)C(=O)c2cccc(NC(=O)c3ccncc3)c2O[C@@H]1CN(C)Cc1ccncc1 | inactive: 0.989
O=C(C[C@@H]1CC[C@@H]2[C@H](COC[C@H](O)CN2C(=O)c2ccc(F)cc2)O1)NCCCN1CCOCC1 | inactive: 0.969
C[C@@H]1CCCCO[C@@H](CN(C)CC2CCCCC2)[C@@H](C)CN([C@H](C)CO)C(=O)c2cc(NC(=O)CCC(F)(F)F)ccc2O1 | inactive: 0.966
C[C@H]1CN([C@@H](C)CO)C(=O)c2cccc(NC(=O)C3CCOCC3)c2O[C@@H]1CN(C)S(=O)(=O)c1ccc(F)cc1 | inactive: 0.97
CN1C(=O)c2cc(NC(=O)c3cccs3)ccc2OC[C@H]2O[C@H](CC(=O)NCC(F)(F)F)CC[C@H]21 | inactive: 1
C[C@@H]1CCCCO[C@H](CN(C)Cc2ccccc2)[C@H](C)CN([C@@H](C)CO)C(=O)c2cc(NC(=O)c3ccccc3)ccc2O1 | inactive: 0.964
CN(C)CCOc1ccc(C#N)cn1 | inactive: 1
CCOc1cc(OCC)cc(C(=O)N[C@@H](Cc2ccc(-n3cc(CCC(=O)NO)nn3)cc2)C(=O)OC)c1 | inactive: 1
O=C(C[C@H]1CC[C@H]2[C@@H](COC[C@H](O)CN2S(=O)(=O)c2ccccc2)O1)NCCN1CCCCC1 | inactive: 1
CC1(C)C[C@@](C)(c2ccccc2)c2cc(SC#N)ccc2N1 | inactive: 1.02
C[C@@H]1CCCCO[C@@H](CN(C)C(=O)C2CCCCC2)[C@@H](C)CN([C@@H](C)CO)C(=O)c2cc(NC(=O)CCC(F)(F)F)ccc2O1 | inactive: 0.991
CCCNC(=O)COc1cccc([C@@H](CCc2ccc(OC)c(OC)c2)OC(=O)[C@@H]2CCCCN2C(=O)C(=O)C(C)(C)CC)c1 | inactive: 1.04
C[C@@H]1CCCCO[C@@H](CN(C)C(=O)Nc2ccc3c(c2)OCO3)[C@H](C)CN([C@@H](C)CO)C(=O)c2cc(NS(=O)(=O)c3cccs3)ccc2O1 | inactive: 1.01
CCCCCCOc1ccccc1C(N)=O | inactive: 0.945

Structure (SMILES) | relative growth
C[C@H](CO)N1C[C@H](C)[C@H](CN(C)S(=O)(=O)c2cccs2)Oc2ccc(NC(=O)c3ccncc3)cc2CC1=O | inactive: 0.983
CC(C)c1onc(-c2c(Cl)cccc2Cl)c1COc1ccc(C=Cc2cccc(C(=O)O)c2)c(Cl)c1 | inactive: 0.895
C[C@H](CO)N1C[C@H](C)[C@@H](CN(C)S(=O)(=O)c2cn(C)cn2)Oc2ccc(NC(=O)c3ccncc3)cc2CC1=O | inactive: 0.95
C[C@@H](N)CCc1ccc(Br)cc1 | inactive: 0.911
O=C(C[C@H]1CC[C@H]2[C@@H](COC[C@H](O)CN2S(=O)(=O)c2ccc(F)cc2)O1)N[C@@H]1CCN(Cc2ccccc2)C1 | inactive: 1.01
COc1ccc(CN(C)C[C@@H]2OCCCC[C@H](C)Oc3ccc(NC(=O)Nc4ccc(F)cc4)cc3C(=O)N([C@H](C)CO)C[C@H]2C)cc1 | inactive: 0.982
Cc1ccc(S(=O)(=O)Nc2ccc3c(c2)C(=O)N([C@H](C)CO)C[C@H](C)[C@@H](CN(C)Cc2ccc(Cl)c(Cl)c2)O3)cc1 | inactive: 0.97
C[C@H](CO)N1C[C@H](C)[C@H](CN(C)S(C)(=O)=O)Oc2ccc(NC(=O)Nc3ccc(C(F)(F)F)cc3)cc2C1=O | inactive: 0.937
Cc1noc(C)c1S(=O)(=O)N(C)C[C@H]1OCCCC[C@H](C)Oc2ccc(NS(C)(=O)=O)cc2C(=O)N([C@H](C)CO)C[C@@H]1C | inactive: 0.844
O=C(C[C@@H]1CC[C@@H]2[C@H](COC[C@@H](O)CN2CC2CCOCC2)O1)N1CCOCC1 | inactive: 0.995
C[C@@H]1CN([C@H](C)CO)C(=O)c2cccc(NC(=O)c3ccc(-c4nccs4)cc3)c2O[C@H]1CN(C)S(C)(=O)=O | inactive: 0.936
Cc1noc(C)c1NC(=O)N(C)C[C@H]1OCCCC[C@@H](C)Oc2ccc(NS(=O)(=O)c3ccc(F)cc3)cc2C(=O)N([C@@H](C)CO)C[C@@H]1C | inactive: 1.05
C[C@@H]1CN([C@@H](C)CO)S(=O)(=O)c2ccc(C#CC(C)(C)O)cc2O[C@H]1CN(C)C(=O)C1CCCCC1 | inactive: 0.973
O=C(C[C@H]1C=C[C@H](NS(=O)(=O)c2ccccc2F)[C@H](CO)O1)NCCCN1CCOCC1 | inactive: 1
CNC(=O)CN1CCO[C@H]2CN(C(=O)C(C)C)C[C@@H]21 | inactive: 0.995
CN1C(=O)c2cc(NC(=O)C3CCCC3)ccc2OC[C@@H]2O[C@@H](CC(=O)NCCc3ccncc3)CC[C@@H]21 | inactive: 1.01
COc1ccc(NC(=O)Nc2ccc3c(c2)[C@@H]2C[C@@H](CC(=O)NCc4ccccn4)O[C@H](CO)[C@@H]2O3)cc1 | inactive: 1.01
COc1ccc(S(=O)(=O)N(C)C[C@@H]2Oc3c(NC(=O)C4CC4)cccc3C(=O)N([C@H](C)CO)C[C@H]2C)cc1 | inactive: 0.997
COC[C@H]1C[C@@H](c2nc(-c3ccc4c(c3)COc3cc5c(ccc6[nH]c([C@@H]7CC[C@H](C)N7C(=O)[C@@H](NC(=O)OC)C(C)C)nc65)cc3-4)c[nH]2)N(C(=O)[C@H](NC(=O)OC)c2ccccc2)C1 | inactive: 1.06
